From PMC5700166 come the findings set out here.

The list shows a part of the results, in another mix than the full data. The list includes weakly bound sequences.

In this assay the target is T1, GST-Dm-Relish (UniProt Q94527).
T1 sequence: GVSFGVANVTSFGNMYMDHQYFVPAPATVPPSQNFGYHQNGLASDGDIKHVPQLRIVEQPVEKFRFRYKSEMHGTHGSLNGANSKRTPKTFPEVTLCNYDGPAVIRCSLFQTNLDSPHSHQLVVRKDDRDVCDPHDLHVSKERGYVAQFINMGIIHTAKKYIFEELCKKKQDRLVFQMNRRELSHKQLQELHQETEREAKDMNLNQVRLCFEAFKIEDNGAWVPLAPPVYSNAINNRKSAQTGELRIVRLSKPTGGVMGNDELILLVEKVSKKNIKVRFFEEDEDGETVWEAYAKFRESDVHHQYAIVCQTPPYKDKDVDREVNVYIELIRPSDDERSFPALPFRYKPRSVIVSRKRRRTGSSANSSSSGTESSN
Briefly: protein-binding microarray (PBM). The following applies: PBM: ~300 nM protein, 6 mM HEPES pH 7.8, 80 mM KCl, 0.5 mM EDTA, 0.5 mM EGTA, 6% glycerol, 35 ng/ul poly-dIdC, 1% milk, 1 h, room temperature; Ap Aiptasia and Nv Nematostella (sea anemones) / Co Capsaspora / Aq Amphimedon (sponge) / Dm Drosophila / Hu human; RHD is the Rel homology domain; high values mean tight binding; most listed sequences are background and not binding sites; double strand, one strand shown.
As to “CCGATTAACATCACGTATTTCCCTGATGTTAATCGGGTCTTGATTCGCTTGACGCTGCTG”, the binding signal amounted to 4.26 z-score.
With “CCGATTAACATCATGGGGAGGAATGATGTTAATCGGGTCTTGATTCGCTTGACGCTGCTG” the figure was 0.52 z-score; with “CCGATTAACATCAGGGGAAGTACTGATGTTAATCGGGTCTTGATTCGCTTGACGCTGCTG”, 10.7 z-score.
For the sequence “CCGATTAACATCACCCTTGGGAATGATGTTAATCGGGTCTTGATTCGCTTGACGCTGCTG”, the binding signal amounted to 0.883 z-score.
The figure for “CCGATTAACATCAGGAATATCCCTGATGTTAATCGGGTCTTGATTCGCTTGACGCTGCTG” is 2.78 z-score; for “CCGATTAACATCAACGTATTCCCTGATGTTAATCGGGTCTTGATTCGCTTGACGCTGCTG” it is 1.41 z-score; for “CCGATTAACATCAGGGAAGTACCTGATGTTAATCGGGTCTTGATTCGCTTGACGCTGCTG” it is 9.88 z-score.
Sequence “CCGATTAACATCAAGGGAAAAATTGATGTTAATCGGGTCTTGATTCGCTTGACGCTGCTG” returned a binding signal of 1.89 z-score.
For “CCGATTAACATCAGGGAATTGGATGATGTTAATCGGGTCTTGATTCGCTTGACGCTGCTG”, the binding signal is -0.156 z-score.
The figure for “CCGATTAACATCAGCACGGGAAATGATGTTAATCGGGTCTTGATTCGCTTGACGCTGCTG” is 0.327 z-score; for “CCGATTAACATCACGGATTTCCCTGATGTTAATCGGGTCTTGATTCGCTTGACGCTGCTG” it is 5.3 z-score; for “CCGATTAACATCAGGGACCCCCCTGATGTTAATCGGGTCTTGATTCGCTTGACGCTGCTG” it is 9.78 z-score.
